# Results taken from paper PMC4242493.
# Some of the results follow. The list includes weakly bound sequences.
# Molecular target: MaxL homodimer (UniProt P61244)
# Assay: universal protein-binding microarray (PBM)
# Conditions: PBS-based mixture, 10 nM His-tagged protein dimer, 2% milk, 200 ng/uL BSA, 50 ng/uL salmon testes DNA, 0.02% TX-100; detection with Alexa 488 anti-His …; high values mean tight binding; most listed sequences are background and not binding sites; double strand, one strand shown
# UniProt P61244, sequence (P61244 whole entry): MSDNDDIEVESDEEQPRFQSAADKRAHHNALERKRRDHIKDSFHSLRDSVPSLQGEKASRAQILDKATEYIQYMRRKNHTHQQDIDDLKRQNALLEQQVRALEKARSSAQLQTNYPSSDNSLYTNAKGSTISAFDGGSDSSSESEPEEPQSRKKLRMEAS
row,Sequence,binding signal (normalized occupancy)
1,GTTTGGGA,0.0746
2,CCAGTATA,0.0771
3,ACCTAAAA,0.0747
4,GCCCAGGA,0.0678
5,GGGAGTCA,0.0757
6,AGCACTGA,0.0719
7,CACTACAG,0.0737
8,AAGTTCAA,0.0758
9,ATTGGTAA,0.0709
10,CTGAGCAC,0.0748
11,CTATGCAA,0.0829
12,ATATGAAG,0.0765
13,GCCGACCC,0.0709
14,GAAGTGAC,0.0733
15,GGTCGGTA,0.0767
16,TAAGAGGA,0.076
17,CGACACAG,0.0724
18,CCCTGCTA,0.0683
19,AAGAAAGA,0.0736
20,CCGTAACA,0.0788
21,TGGCTTAA,0.073
22,ACCCGTAA,0.0742
23,CTGGGCTC,0.0683
24,CGAGCTCA,0.0739
25,ACTATCGA,0.0764

row,Sequence,binding signal (normalized occupancy)
1,ACCAGATC,0.0785
2,AGTTGAAT,0.0699
3,AGTACCGC,0.0733
4,AATGTTCT,0.0716
5,AAATTGTT,0.0739
6,GGCGTATA,0.0747
7,GTTAATCA,0.0763
8,GCCTTCGC,0.0729
9,CTGGTAGA,0.0724
10,CTTGAAAC,0.0698
11,ACTCACCG,0.0685
12,CGTAAGAC,0.073
13,GCAGCGGC,0.0684
14,GAAGTCAA,0.0731
15,GTGTGAAA,0.077
16,GAATCGAC,0.0734
17,TCCAGACA,0.0755
18,CGCCCCCC,0.0791
19,CCCGGTAG,0.0721
20,CACTTCCA,0.0744
21,ACGTGTGG,0.104
22,AGGAGGTG,0.0739
23,GGCGCCCA,0.0683
24,GTCGGCTA,0.0725
25,GAAGTTCA,0.0702

row,Sequence,binding signal (normalized occupancy)
1,ATTGTGTA,0.0795
2,ATAGCTAA,0.0709
3,CACGGAAC,0.0765
4,AGATGACT,0.0724
5,CGTTCGTC,0.0756
6,ACGAGCGT,0.079
7,AGCGTAAT,0.0783
8,GCCATCAC,0.0781
9,CGCTTACA,0.0759
10,ATGTAATA,0.0877
11,GACTCGAC,0.0716
12,GGCTCACA,0.0784
13,CGCTGAGC,0.0666
14,GAAGACCA,0.0742
15,TAACCCAA,0.0724
16,AGTGCTTC,0.071
17,AGTCTCCA,0.0703
18,ACACTGAC,0.0742
19,GAAATATA,0.0832
20,AGAGCACA,0.0745
21,AGTACCAA,0.0697
22,GTGATCAA,0.0762
23,CCGAGCAG,0.0688
24,CCGGAGGA,0.0682
25,AGTCAAAG,0.0683

row,Sequence,binding signal (normalized occupancy)
1,GAGGCCTC,0.066
2,AATGGTCG,0.0788
3,TCTTTAAA,0.0739
4,CAGTGGCA,0.0709
5,ACCCTCCG,0.0716
6,AGACGATA,0.0776
7,CATGTTTA,0.0975
8,CAGGATAG,0.0808
9,ATGTACCG,0.0773
10,TGCCGACA,0.0708
11,CCTTATGA,0.0858
12,CCGTATGC,0.0775
13,GCCTTTGA,0.0737
14,CTACTCAA,0.076
15,TCCATCGA,0.0807
16,CTAACAAG,0.0763
17,CTAAACCA,0.0714
18,GGATCACC,0.0774
19,CCTTGTGA,0.0852
20,AGCTACCA,0.0774
21,ATATCTTG,0.0781
22,GTCTTCAA,0.0773
23,AGCCCTAG,0.0726
24,GACTTCAA,0.0769
25,CAATCAAC,0.0759

row,Sequence,binding signal (normalized occupancy)
1,ATACAACG,0.0812
2,CCTGCATA,0.0775
3,CAGACGTC,0.0725
4,TCACTCAA,0.0775
5,AGAGGGAC,0.0712
6,ATGTCAAC,0.0806
7,ACGTACCA,0.0845
8,ACGGCGAA,0.0755
9,AGAAATCA,0.0761
10,CAACGTAG,0.0762
11,GCTCTAGA,0.0703
12,CAGGGACG,0.0724
13,GGTTTAAC,0.07
14,AATCTTGT,0.0792
15,CCAACCTA,0.0696
16,GCAGGTAA,0.0753
17,CAACATCA,0.0834
18,AAGCTGAC,0.0676
19,CGTCCCCA,0.0757
20,GCCGTACA,0.0734
21,CTCATGCA,0.0963
22,CCGACGCA,0.0724
23,GTGCGCAA,0.0723
24,ATACATGG,0.0876
25,AAGGTCTA,0.0766

row,Sequence,binding signal (normalized occupancy)
1,GACAGCCC,0.0721
2,CCATCACA,0.0836
3,CCTAATCA,0.0795
4,AAACGTTA,0.0739
5,AAAACATC,0.0796
6,CAGAGACA,0.0742
7,AAACAACT,0.0717
8,ATCTTCAT,0.0785
9,GATCTAGA,0.0744
10,GCCCTCAA,0.0742
11,GATCCTGA,0.0762
12,TCAGAGCA,0.075
13,ATGGCTTC,0.0747
14,AACCGCCG,0.0663
15,CGCAGGGA,0.071
16,AAGAGGAT,0.0795
17,AATTCGGC,0.0731
18,ATTTAATG,0.0804
19,AAGAACTA,0.0768
20,AGTCTGCA,0.0717
21,CAGCGGCA,0.077
22,CTCCAGGC,0.0704
23,CCCCTATA,0.0838
24,GCCCCGTA,0.0763
25,AGTCGCAT,0.0785

row,Sequence,binding signal (normalized occupancy)
1,AGAAGAAC,0.076
2,ACTTCGCT,0.0657
3,GTCTTATA,0.088
4,GGCATACA,0.0776
5,CCCGCGCC,0.0733
6,ACAGGGCT,0.0744
7,CGTCCATA,0.0783
8,AACTATGC,0.0749
9,CGGTCCGA,0.0679
10,CATGTCAC,0.0932
11,GGGGCGGA,0.0751
12,AATCGACA,0.0751
13,AGTAGTCG,0.0751
14,AGGTGTAA,0.0858
15,GACCGCGC,0.0751
16,GATTCTAA,0.0771
17,CAGCTGTC,0.0716
18,CACGGGTC,0.0809
19,TGTCACAA,0.0769
20,ACCTGAAT,0.0786
21,CCCAGGGC,0.0664
22,CCACCTAA,0.0735
